In PMC12136788:
The list shows a part of the results.

B1: 54837271_54837391_707_CDS_ENSG00000102316_ENST00000375058|human|control|control (ssRNA)
RNA: GGGAGUUCUACAGUCCGACGAUCCCAAAAGGCUAUGGGACCCCUUGAAGCCCUGCGGGCCAUUGAGGCCAUUAGGGCCUUUGAGACCCUUCGGCCACCUGUGGUUCCAGAAGCCUGACUCUGAUCACUGCUGCCAUCCUCUUCCAACAGAGGAUUGAGCAUCA
B2: chr18:5290039:5290040:-_ENSG00000198081_ENST00000357006|hu_mus|FALSE|FALSE (ssRNA)
RNA: GGGAGUUCUACAGUCCGACGAUCGUCACGAUUUCAAGACCUAGGGGUUUUUUGUAUCUGUGAAAACCUUGUGUCAGACUCUUCUCCUGUCGAUGCUGGUCCAUUGCACGGACACACACAGACAGCAUGGCCACACUGAAUGAACAACAGAGGAUUGAGCAUCA
B3: chr20:57415074:57415075:+_ENSG00000087460_ENST00000313949|hu_hu|FALSE|FALSE (ssRNA)
RNA: GGGAGUUCUACAGUCCGACGAUCUCUGCAGAGAGUGGCUCCGAAGCACAUUGGCUGCUGGAGCCGGGAAAGGUACACCCUAUGAGGUGAGAAGCUGGCCCGGAGGUCCCAGCCUCACCUCCUUGUGAGGAGAAAAAGGGAAGCCAACAGAGGAUUGAGCAUCA
B4: chr5:143667385:143667386:-_ENSMUSG00000029580_ENSMUST00000171419|mus_mus|motif|central (ssRNA)
RNA: GGGAGUUCUACAGUCCGACGAUCCGACCAGCGCAGCGAUAUCGUCAUCCAUGGCGAACUAUCAAGACACAAAAGAAGGCGGUAGUCACCUCGGGGCCGCCAAGAGCAGCCGCUGCCGCCCUGCCCACUUCCGGCAAGCCGCGGCAACAGAGGAUUGAGCAUCA
B5: 76996067_76996997_2454_CDS_ENSMUSG00000036435_ENSMUST00000113493|mouse|control|control (ssRNA)
RNA: GGGAGUUCUACAGUCCGACGAUCGAAAUGAUUUAGCUUUUCAAGGGGCUGUCCUAAAGAGUAAAUGACGUAGGACUGAAGGUGAUCCGUGUACUUCUGCUUGGCUUCUUUCUUCUCAGCUUCAAGACAUGAGAUUUUCAGACGCAACAGAGGAUUGAGCAUCA
B6: chr9:113799110:113799111:+_ENSMUSG00000033392_ENSMUST00000111838|mus_hu|FALSE|FALSE (ssRNA)
RNA: GGGAGUUCUACAGUCCGACGAUCCAGCAGUACAAACAACCAAUCUUGAAGAUCAUCUUUGUGGACUUGUAUGAAAUCCACUAGAGUCUCCAAAAACAUGCUGAAUACUCUCUUGCCAUGAGGGUCAGCAAACAUUCUUGUGAACAACAGAGGAUUGAGCAUCA
B7: chr1:213178640:213178641:-_ENSG00000174606_ENST00000366962|hu_hu|motif|central (ssRNA)
RNA: GGGAGUUCUACAGUCCGACGAUCUGCUACGCAGAUUGCAGGGCAGGCAGCAUAUGGAAUUUUGGGCUGUAAGAGUAAAACGGAUCCAACAUUGUCUCUGUCCAACAGAGAAAUAUCAGGGCGGAAGAAUUCCACUGGGUUCACCAACAGAGGAUUGAGCAUCA
B8: 100336325_100340262_1318_CDS_ENSG00000162688_ENST00000361915|human|control|control (ssRNA)
RNA: GGGAGUUCUACAGUCCGACGAUCCUUGGUUACUCGCCUAUUUUCUUGUGUAAGAAGUCUUCUAAAUUGCUCAACCGCUUUGUUGACAUCUACUUGGAAAAAUUCCCAGAGUUUAAGCUUUGGAAAAAUAUCCUCCCAAAUUAUCAACAGAGGAUUGAGCAUCA
B9: chr1:133183185:133183186:-_ENSMUSG00000026425_ENSMUST00000097588|mus_mus|FALSE|FALSE (ssRNA)
RNA: GGGAGUUCUACAGUCCGACGAUCGCUGAGUGAGUCUUAGGUUCGCACAAAGCAUCUUCAAGCAUACAUACAAUAUUCCAGUUAUCAACACCAUUUUAAAGAACAUACCAUUUUACACAAAUGUGACAUACAAAUCAGACGCCACAACAGAGGAUUGAGCAUCA
B10: chr4:17845017:17845018:+_ENSG00000109805_ENST00000514176|hu_mus|hu_hu_hu_mus_False|68_98 (ssRNA)
RNA: GGGAGUUCUACAGUCCGACGAUCGCUCUCUUAACUUGAUCUUCAUUUAAGGAACUCUGCAAGGUUAGUUUACUUUUUCUGUAGCGCAGCUGUUUUGGCUCGUCUGGGUAAUCUCAUCUUCAUUUCUGAUGGUGGUUCAUGAUCCAACAGAGGAUUGAGCAUCA
B11: chr12:48362563:48362564:+_ENSG00000134291_ENST00000256686|hu_hu|hu_hu_hu_mus_False|38_48 (ssRNA)
RNA: GGGAGUUCUACAGUCCGACGAUCUCCGUCAAGCCCUUCGAUAGACCCUUGCGGGGGAAACUGUAAUCACUUUGUAUGGGGAAGGAAAAAAAAAGCCAACACACUUUCAAAAAGCGGGGGUGGGGUGAGGCGGGAGGGGGAGGUCAACAGAGGAUUGAGCAUCA
B12: chr9:54997157:54997158:+_ENSMUSG00000032307_ENSMUST00000059555|mus_mus|FALSE|FALSE (ssRNA)
RNA: GGGAGUUCUACAGUCCGACGAUCCGGCUGCUGCCUUUGUAACCGACUCCACCCGCAGGAGGCGGUGGCCCCGCGGCUUAAAAGGGCAACAGCGACGCCGCCCCCACCGCCGCCUGGGAGAGGGCUGCCCCCGCCCCGGCGCGCCAACAGAGGAUUGAGCAUCA
B13: chr1:171484892:171484893:+_ENSG00000117523_ENST00000367742|hu_hu|FALSE|FALSE (ssRNA)
RNA: GGGAGUUCUACAGUCCGACGAUCUUUUUUUUCCUGAUCCCCAGCUGCCUGCAGGCUGGGAAAUUCUUGCUGAAACUGACUAUUCACUUGGAUUCCAUCUCCUUGCCCACCUUGCUUGUUACUGGCCCAUGAUUUGGGAGCAGGCAACAGAGGAUUGAGCAUCA
B14: chr7:149068622:149068623:-_ENSMUSG00000025139_ENSMUST00000001950|mus_hu|mus_mus_mus_hu_False|18_108 (ssRNA)
RNA: GGGAGUUCUACAGUCCGACGAUCGUGCAGGUACUGAGUGUGGCUUGUGGUCUGUCCUGGGUUAGAGUUGUUAAUAUCACGGAACAUACCAUCUAGAACGUUCCAGUCCCGCCUGACCAUCCACCCUCCAAUGGAGAAGAAAUCCAACAGAGGAUUGAGCAUCA
B15: chr4:95690885:95690886:+_ENSMUSG00000028572_ENSMUST00000156910|mus_mus|motif|central (ssRNA)
RNA: GGGAGUUCUACAGUCCGACGAUCAUAAUUUUUAGAAAAUGUUAAAUAGCAUGCUAAGUAAUUUUAAAGUCUUAUUUUACGGAAAGACACAGGCAAGCAGACACCAUAAACAUACAAAAAUACAAACCAACAGUGUAAAAUGUACAACAGAGGAUUGAGCAUCA
B16: 27872824_27873996_4813_CDS_ENSMUSG00000026837_ENSMUST00000028280|mouse|control|control (ssRNA)
RNA: GGGAGUUCUACAGUCCGACGAUCCGGAGGGCCGAUGAGUCCAAUCAGGCCUGGAUGGCCCUUUUCACCUUUGGGACCGGAGUCUCCUUUGAGGCCAGGGAGUCCUGGAGGACCCAUGGGGCCGGGUGGACCAUCGGGGCCUGGCAACAGAGGAUUGAGCAUCA
B17: chr3:160249337:160249338:-_ENSG00000186432_ENST00000334256|hu_hu|FALSE|FALSE (ssRNA)
RNA: GGGAGUUCUACAGUCCGACGAUCGGGCAAUAUUCCAGAUUUUAUUAAGUCAUCAAUUGGUGGAUUUCGAUCACUGGACAAAAGCUUCCUAGCAGCUUGAACUGCACUUAAUUGAAUUCCUUGGUUAUCACUUGAAGCAUUUUGCAACAGAGGAUUGAGCAUCA
B18: chr10:36854569:36854570:-_ENSMUSG00000069662_ENSMUST00000092584|mus_hu|motif|central (ssRNA)
RNA: GGGAGUUCUACAGUCCGACGAUCAGAACCACAAUAAAAUUUACUCCUGAUGGCAUGCAAGAUCUUCCUAAAAAUUAACCGGAGACCGGGAAGUCUCAGUAUUAUUAGAACAUAAAAAAACACAACAAAUUUGUACAUUUUAUUCAACAGAGGAUUGAGCAUCA
B19: 36555558_36557150_1177_CDS_ENSMUSG00000032116_ENSMUST00000120381|mouse|control|control (ssRNA)
RNA: GGGAGUUCUACAGUCCGACGAUCGGUUGUGGGCUGGUGCUCAGAAACAGAUGCAAUAAUGGGAAUGUUAUUCUUAGCAUAAGAGGGAUCCAGCAGAGAGUAGAAACGCCCUGUCCAGGGAGAAAUUUUUCCUGUUAGCAUGAGCAACAGAGGAUUGAGCAUCA
B20: chr9:5785663:5785664:-_ENSG00000099219_ENST00000339450|hu_hu|motif|central (ssRNA)
RNA: GGGAGUUCUACAGUCCGACGAUCGAGACAAGCAGCUUCAAGGACGUUUUCUCCGGCAAUGCAUACUUACUGUGCUCUUUCGGUUCAGACAGAUCCACAGACCACCUUUCAAGAGCAUUCCUCUCUCAUUUCCUCCAUCACCCACAACAGAGGAUUGAGCAUCA
B21: chr6:160170297:160170298:+_ENSG00000146457_ENST00000337387|hu_hu|FALSE|FALSE (ssRNA)
RNA: GGGAGUUCUACAGUCCGACGAUCCAAAGCUCUUUUAAACAUGUGCCUGUUGAAUGGAACGGGGAUUUCAUAAAAUUCACUAAAAAAAAUAAUGCAGUGAGUCUCAUCACAGCUAAUAUCCUUAUACAAUCUAGUUGUGAAAUGCAACAGAGGAUUGAGCAUCA
B22: chr2:179515052:179515053:+_ENSMUSG00000000305_ENSMUST00000000314|mus_hu|mus_mus_mus_hu_False|58_68 (ssRNA)
RNA: GGGAGUUCUACAGUCCGACGAUCGCUGUCCCAUGCAGUCACCGUGAACGCCACCUGCUCGGAGGGGAUCUUCAACUCCCUAGUGGCGAAGACUGUCCCAUCUGCCCCAACUUUGAAGUCCAUGCUGUUGGUCUCAUAUUGUGUCAACAGAGGAUUGAGCAUCA

biological target: T1, UNK ZnF1-3 (human, UniProt Q9C0B0 31-174); assay: nsRBNS (natural sequence RNA bind-n-seq); RBNS binding buffer (assumed for nsRBNS): 25 mM Tris pH 7.5, 150 mM KCl, 3 mM MgCl2, 0.01% Triton X-100, 500 ug/ml BSA, 20 U/ml SUPERase-In, 4 C; UNK is unkempt and MSI1 is Musashi-1; names of the RNAs are library labels; protein concentration not given here; high values mean tight binding
T1 sequence: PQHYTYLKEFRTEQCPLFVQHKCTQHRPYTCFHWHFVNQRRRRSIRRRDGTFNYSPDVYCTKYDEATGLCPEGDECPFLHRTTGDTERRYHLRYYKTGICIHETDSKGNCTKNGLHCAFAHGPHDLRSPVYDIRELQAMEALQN

Q: How did the binding signal turn out when B1 was run?
A: 0.729 enrichment R

Q: With B2 as the binder, how does the binding signal read?
A: 0.718 enrichment R

Q: With B3 as the binder, how does the binding signal read?
A: 0.813 enrichment R

Q: How did the binding signal turn out when B4 was run?
A: 0.702 enrichment R

Q: For B5, which binding signal is on record?
A: 0.825 enrichment R

Q: For B6, which binding signal is on record?
A: 0.808 enrichment R

Q: For B7, which binding signal is on record?
A: 1.55 enrichment R

Q: How did the binding signal turn out when B8 was run?
A: 0.569 enrichment R

Q: Which binding signal does the source give for B9 here?
A: 1.16 enrichment R

Q: How did the binding signal turn out when B10 was run?
A: 0.348 enrichment R

Q: Which binding signal does the source give for B11 here?
A: 2.33 enrichment R

Q: With B12 as the binder, how does the binding signal read?
A: 0.554 enrichment R

Q: How did the binding signal turn out when B13 was run?
A: 0.677 enrichment R

Q: How did the binding signal turn out when B14 was run?
A: 0.953 enrichment R

Q: Which binding signal does the source give for B15 here?
A: 2.47 enrichment R

Q: How did the binding signal turn out when B16 was run?
A: 0.471 enrichment R

Q: B17 was tested. Which binding signal did it give?
A: 1.05 enrichment R

Q: For B18, which binding signal is on record?
A: 1.97 enrichment R

Q: For B19, which binding signal is on record?
A: 1.69 enrichment R

Q: B20 was tested. Which binding signal did it give?
A: 1.12 enrichment R

Q: For B21, which binding signal is on record?
A: 0.725 enrichment R

Q: B22 was tested. Which binding signal did it give?
A: 0.727 enrichment R
